# From PubChem BioAssay (NCATS)
# The shares of active, inactive and inconclusive entries below differ from those in the screen. For part of these data: Where the call is inconclusive, the potency comes from a doubtful curve fit. Active and inactive are the calls of the source. Calls follow the shape of the dose curve; as a rule, active = well fitted curve in the direction sought with a large enough effect; inconclusive = small, poorly fitted or top-dose-only effect, or another doubt; inactive = no such curve, though single readings can be large; an effect the other way counts as inactive or inconclusive. Square brackets hold non-standard residues; d marks the D form. Peptide text beside a SMILES is read from it. ξ: configuration not given here. ξLac(3-iPr) = CC(C)CC(O)C(=O)O; NMeV = CN[CH](C(=O)O)C(C)C; NMeA = CN[CH](C)C(=O)O; βAla = NCCC(=O)O
# What was measured:
# [1] = tested on: CAOV3; assay: Primary qHTS to identify gynecologic anti-cancer compounds using libraries of approved drugs and bioactive compounds (AID 1345084); conditions: Gynecologic cancer cell panel viability, ATPlite luminescence, 48 h; series mostly up to 57.5 µM; also: nearly all actives have a fitted effect of over 55% in size; as to activity change, negative = cytotoxicity: % is scaled to controls: 0 for no effect and ±100 for the full control effect
# Procedure, shortened: (§1)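 Cells, 1,000 per well, were allowed to settle for 16 h at 37 C before compound addition. Five concentrations were tested for 48 h, and viability was read by ATPlite luminescence after 15 min at room temperature.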
# [2] = tested on: Es-2; assay: as above; conditions: Gynecologic cancer cell panel viability, ATPlite luminescence, 48 h; series mostly up to 57.5 µM
# Procedure, shortened: as §1
# [3] = tested on: HeLa; assay: as above; conditions: Gynecologic cancer cell panel viability, ATPlite luminescence, 48 h; series mostly up to 57.5 µM
# Procedure, shortened: as §1
# [4] = tested on: Hek293T; assay: as above; conditions: Gynecologic cancer cell panel viability, ATPlite luminescence, 48 h, control line for the selectivity index; series mostly up to 57.5 µM
# Procedure, shortened: as §1
# [5] = tested on: OV90; assay: as above; conditions: Gynecologic cancer cell panel viability, ATPlite luminescence, 48 h; series mostly up to 57.5 µM
# Procedure, shortened: as §1
# [6] = tested on: JEG-3; assay: as above; conditions: Gynecologic cancer cell panel viability, ATPlite luminescence, 48 h; series mostly up to 57.5 µM
# Procedure, shortened: as §1
# [7] = tested on: CASKI; assay: as above; conditions: Gynecologic cancer cell panel viability, ATPlite luminescence, 48 h; series mostly up to 57.5 µM
# Procedure, shortened: as §1
# [8] = tested on: SC27B; assay: qHTS profiling for inhibitors of Plasmodium falciparum proliferation (AID 504749); also: nearly all actives have a fitted effect of over 60% in size; conditions: P. falciparum in erythrocytes, SYBR Green DNA, 72 h; series mostly up to 28.7 µM
# Procedure, shortened: (§2)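 In a 72 h erythrocytic culture (37 C, humidified, 5% CO2) at 2.5% hematocrit and 0.3% starting parasitemia, compounds were tested; SYBR Green I in detergent lysis buffer stained parasite DNA overnight.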
# [9] = tested on: TAB109; assay: as above; conditions: P. falciparum in erythrocytes, SYBR Green DNA, 72 h; series mostly up to 28.7 µM
# Procedure, shortened: as §2
# [10] = tested on: W2; assay: as above; conditions: P. falciparum in erythrocytes, SYBR Green DNA, 72 h; series mostly up to 28.7 µM
# Procedure, shortened: as §2
# [11] = tested on: TAB165; assay: as above; conditions: P. falciparum in erythrocytes, SYBR Green DNA, 72 h; series mostly up to 28.7 µM
# Procedure, shortened: as §2
# [12] = tested on: TAB113; assay: as above; conditions: P. falciparum in erythrocytes, SYBR Green DNA, 72 h; series mostly up to 28.7 µM
# Procedure, shortened: as §2
# [13] = tested on: PC49; assay: as above; conditions: P. falciparum in erythrocytes, SYBR Green DNA, 72 h; series mostly up to 28.7 µM
# Procedure, shortened: as §2
# Potency is read from the fitted curve at half-maximal effect; tags tell the direction and shape of the fitted curve.
compound,measurement,setting,value
Cc1sc2c(c1C)C(c1ccc(Cl)cc1)=N[C@@H](CC(N)=O)c1nnc(C)n1-2,Potency,[1],"inconclusive: 6.31 µM [cytotoxic, full curve]"
same,Potency,[2],"inconclusive: 1.78 µM [cytotoxic, full curve]"
same,Potency,[3],"inconclusive: 0.631 µM [cytotoxic, full curve]"
same,Potency,[4],"inconclusive: 7.08 µM [cytotoxic, full curve, poor fit]"
same,Potency,[5],"inconclusive: 3.16 µM [cytotoxic, full curve]"
CCC(=O)OC1(c2ccccc2)CCN(C)CC1,Potency,[1],"inconclusive: 12.6 µM [rising, single point]"
CCC(C)C1NC(=O)C2CCCN2C(=O)C(CC(C)C)OC(=O)CCNC(=O)C(C)N(C)C(=O)C(C(C)C)N(C)C1=O (stereo unspecified) (cyclo([ξLac(3-iPr)]PI[NMeV][NMeA][βAla]); configuration not given here),Potency,[1],"inconclusive: 7.94 µM [cytotoxic, single point]"
same,Potency,[2],"inconclusive: 7.94 µM [cytotoxic, single point]"
same,Potency,[4],"inconclusive: 11.2 µM [cytotoxic, single point]"
same,Potency,[6],"inconclusive: 12.6 µM [rising, single point]"
same,Potency,[5],active: 3.98 µM
Cc1sc2c(c1C)C(c1ccc(Cl)cc1)=N[C@@H](CC(=O)Nc1ccc(O)cc1)c1nnc(C)n1-2,Potency,[1],"inconclusive: 0.891 µM [cytotoxic, partial curve, poor fit]"
same,Potency,[7],"inconclusive: 2.82 µM [cytotoxic, partial curve, poor fit]"
same,Potency,[2],"inconclusive: 3.98 µM [cytotoxic, partial curve]"
same,Potency,[3],"inconclusive: 1.12 µM [cytotoxic, full curve]"
CCN[C@@H](C)Cc1cccc(C(F)(F)F)c1,Potency,[1],inactive
C[C@]12CC[C@H](O)C[C@@H]1CC[C@@H]1[C@@H]2CC[C@]2(C)C(=O)CC[C@@H]12,Potency,[1],inactive
COc1ccc(C23CCC(=O)C=C2N(C)CC3)cc1OC (stereo unspecified),Potency,[1],inactive
same,Potency,[7],"inconclusive: 39.8 µM [cytotoxic, single point]"
same,Potency,[3],"inconclusive: 39.8 µM [cytotoxic, single point]"
same,Potency,[6],"inconclusive: 25.1 µM [cytotoxic, single point]"
same,Potency,[5],inactive
CCOC(C(=O)OCCN(C)C)(c1ccccc1)c1ccccc1,Potency,[1],inactive
same,Potency,[5],"inconclusive: 39.8 µM [cytotoxic, single point]"
C#C[C@]1(O)CC[C@H]2[C@@H]3CC[C@H]4Cc5nc6nc7ccccc7n6cc5C[C@]4(C)[C@H]3CC[C@@]21C,Potency,[7],inactive
Cc1nc2ccccc2c(=O)n1-c1ccccc1Cl,Potency,[7],"inconclusive: 70.8 µM [cytotoxic, single point]"
CC(C)=CC1C(C(=O)OCN2C(=O)C3=C(CCCC3)C2=O)C1(C)C (stereo unspecified),Potency,[1],"inconclusive: 39.8 µM [cytotoxic, single point]"
same,Potency,[4],"inconclusive: 25.1 µM [cytotoxic, single point]"
CC(=O)Nc1cc([As](=O)(O)O)ccc1O,Potency,[1],inactive
same,Potency,[4],"inconclusive: 7.94 µM [rising, single point]"
CC(C)OC(=O)c1ccnc2cc(C(OCCN3CCCCC3)c3ccccc3Cl)sc12 (stereo unspecified),Potency,[1],"inconclusive: 39.8 µM [cytotoxic, single point]"
same,Potency,[4],inactive
same,Potency,[5],"inconclusive: 25.1 µM [cytotoxic, partial curve, poor fit]"
S=C(NC1CCCCC1)N1CCC(c2cnc[nH]2)CC1,Potency,[1],inactive
same,Potency,[4],inactive
same,Potency,[5],inactive
Cc1c(Cl)c(OCC(=O)N2CCN(C)CC2)nc2sc(C(=O)NC3CC3)c(N)c12,Potency,[1],inactive
same,Potency,[4],inactive
NCc1cccnc1,Potency,[8],inactive
same,Potency,[9],inactive
same,Potency,[10],inactive
same,Potency,[1],inactive
same,Potency,[4],inactive
CN1[C@@H]2CC[C@H]1CC(OC(=O)c1cc(Cl)cc(Cl)c1)C2 (stereo partly specified),Potency,[1],"inconclusive: 39.8 µM [cytotoxic, partial curve, poor fit]"
same,Potency,[4],"inconclusive: 25.1 µM [cytotoxic, single point]"
same,Potency,[5],"inconclusive: 25.1 µM [cytotoxic, single point]"
O=c1[nH]c2cc(Cl)ccc2n1C1CCNCC1,Potency,[7],"inconclusive: 11.2 µM [rising, partial curve]"
c1ccc2nc(N3CCNCC3)ccc2c1,Potency,[1],inactive
same,Potency,[5],"inconclusive: 7.08 µM [cytotoxic, single point]"
C[N@@+]1(CC2CC2)CC[C@]23c4c5ccc(O)c4O[C@H]2C(=O)CC[C@@]3(O)[C@H]1C5,Potency,[7],inactive
C/C=C1/CN2CC[C@]34C(=Nc5ccc(OC)cc53)C2C[C@@H]1C4(CO)C(=O)OC (stereo partly specified),Potency,[7],inactive
CC1(C)C(=O)N(c2ccc(C#N)c(C(F)(F)F)c2)C(=S)N1c1ccc(C(N)=O)c(F)c1,Potency,[1],"inconclusive: 1.41 µM [cytotoxic, single point]"
same,Potency,[5],inactive
CCN(CC)C(=O)c1ccc(C2=CC3(CCNCC3)Oc3cccc(O)c32)cc1,Potency,[7],inactive
C[C@H]1C(=O)O[C@@H]2CCN3CC=C(COC(=O)[C@](C)(O)[C@]1(C)O)[C@H]23,Potency,[9],"inconclusive: 3.98 µM [inhibitor, single point]"
same,Potency,[1],inactive
CN(C)[C@@H]1C(=O)C(C(N)=O)=C(O)[C@@]2(O)C(=O)C3=C(O)c4c(O)ccc(Cl)c4[C@@](C)(O)C3C[C@@H]12 (stereo partly specified),Potency,[7],inactive
O=C(O)Cc1ccccc1,Potency,[1],"inconclusive: 7.08 µM [rising, single point]"
same,Potency,[3],inactive
same,Potency,[5],"inconclusive: 1.41 µM [cytotoxic, single point]"
C[C@]12CCC(=O)C=C1CC[C@@H]1[C@@H]2[C@@H](O)C[C@]2(C)C(=O)CC[C@@H]12,Potency,[7],inactive
COc1ccsc1CNCC[C@@]1(c2ccccn2)CCOC2(CCCC2)C1,Potency,[7],inactive
CCOC(=O)Nc1ccc(NCc2ccc(F)cc2)cc1N,Potency,[7],inactive
OC(CNc1ccccc1)Cn1c2ccc(Br)cc2c2cc(Br)ccc21 (stereo unspecified),Potency,[7],"inconclusive: 39.8 µM [rising, single point]"
CC1=CC2/C=C(\C)CCCC(O)/C=C/C(=O)OC23C(=O)NC(CC(C)C)C3C1C (stereo unspecified),Potency,[7],"inconclusive: 5.01 µM [rising, single point]"
O=C(O)COc1nc(Cl)c(Cl)cc1Cl,Potency,[1],"inconclusive: 8.91 µM [rising, single point]"
same,Potency,[5],inactive
C=CCC1(C(C)CC)C(=O)NC(=O)NC1=O (stereo unspecified),Potency,[1],inactive
same,Potency,[4],inactive
COc1ccc(C(=O)c2c(C)n(CCN3CCOCC3)c3ccccc23)cc1,Potency,[11],inactive
same,Potency,[1],"inconclusive: 39.8 µM [cytotoxic, single point]"
C#CCOC(C(=O)OCCN(C)C)(c1ccccc1)c1ccccc1,Potency,[9],"inconclusive: 17.8 µM [inhibitor, single point]"
same,Potency,[10],"inconclusive: 13.5 µM [inhibitor, single point]"
same,Potency,[1],inactive
CC(Cc1ccccc1)NCc1ccccc1Cl (stereo unspecified),Potency,[9],"inconclusive: 12.6 µM [inhibitor, single point]"
same,Potency,[12],"inconclusive: 12.6 µM [inhibitor, single point]"
same,Potency,[11],"inconclusive: 10 µM [inhibitor, single point]"
same,Potency,[1],inactive
CCC1CC2CN3CCc4c([nH]c5ccccc45)C(C(=O)OC)(C2)C13 (stereo unspecified),Potency,[7],inactive
COc1cc(CC(C)N)cc2c1OCO2 (stereo unspecified),Potency,[7],inactive
CC(C)[C@H](NC(=O)c1nn(Cc2ccc(F)cc2)c2ccccc12)C(N)=O,Potency,[1],inactive
same,Potency,[5],inactive
COc1ccccc1N1CCNCC1,Potency,[9],inactive
same,Potency,[1],inactive
CCCCCn1cc(C(=O)Cc2ccccc2OC)c2ccccc21,Potency,[1],"inconclusive: 7.08 µM [rising, single point]"
same,Potency,[6],inactive
O=c1c(C2CC(c3ccc(-c4ccc(Br)cc4)cc3)Cc3ccccc32)c(O)sc2ccccc12 (stereo unspecified),Potency,[1],inactive
same,Potency,[3],"inconclusive: 39.8 µM [cytotoxic, single point]"
same,Potency,[4],inactive
same,Potency,[6],"inconclusive: 39.8 µM [rising, single point]"
same,Potency,[5],"inconclusive: 39.8 µM [cytotoxic, single point]"
CN1CCC[C@@H]1Cc1c[nH]c2ccc(Nc3ncccc3[N+](=O)[O-])cc12,Potency,[1],inactive
same,Potency,[4],"inconclusive: 7.08 µM [cytotoxic, single point]"
Cc1sc2c(c1C)C(c1ccc(Cl)cc1)=NC(CC(=O)Nc1ccc(O)cc1)c1nnc(C)n1-2 (stereo unspecified),Potency,[1],"inconclusive: 0.708 µM [cytotoxic, partial curve, poor fit]"
same,Potency,[3],"inconclusive: 2.24 µM [cytotoxic, full curve, poor fit]"
same,Potency,[5],"inconclusive: 2.51 µM [cytotoxic, full curve, poor fit]"
CC1NCCOC1c1ccccc1 (stereo unspecified),Potency,[12],inactive
same,Potency,[10],"inconclusive: 4.26 µM [inhibitor, full curve]"
same,Potency,[1],"inconclusive: 1.12 µM [rising, full curve, poor fit]"
same,Potency,[4],inactive
Cc1cc(SCc2sc(-c3ccc(C(F)(F)F)c(F)c3)nc2C)ccc1OCC(=O)O,Potency,[7],inactive
same,Potency,[6],"inconclusive: 14.1 µM [rising, partial curve, poor fit]"
C/C=C(\C)C(=O)OC1CC2C(CC=C3CC(OC4CC(OC)C(OC5CC(OC)C(OC6OC(C)C(OC7OC(CO)C(O)C(O)C7O)C(OC)C6O)C(C)O5)C(C)O4)CCC32C)C2(O)CCC(C(C)=O)C12C (stereo unspecified),"activity change, negative = cytotoxicity",[2],inactive: 3.55% [at 11.6 µM]
C[C@@]1(C(=O)O)CC[C@]2(C)CC[C@]3(C)C4=CC(=O)c5cc(O)c(O)cc5[C@]4(C)CC[C@@]3(C)[C@@H]2C1,Potency,[7],inactive
same,Potency,[3],inactive
same,Potency,[5],inactive
CC(C)NC(C)C,Potency,[13],"inconclusive: 17.8 µM [activator, single point]"
same,Potency,[2],inactive
same,Potency,[5],inactive
C/C=C(\C)C(=O)O[C@@H]1[C@@H](C)[C@]2(O)C3C=C(C)C(=O)[C@@]3(O)CC(CO)=C[C@H]2C2C(C)(C)[C@@]21OC(=O)C(C)CC (stereo partly specified),Potency,[2],inconclusive: 0.0316 µM
same,Potency,[6],"inconclusive: 3.16 µM [cytotoxic, single point]"
